PubChem BioAssay AID686978 (National Center for Advancing Translational Sciences (NCATS), 2013)
Several values for one entry are separate records, joined by “and”; a condition that tells them apart may be missing. Equal values may be shown once. About 64,000 (15%) of roughly 420,000 compounds were called active. Inconclusive results, whose numbers are uncertain, are shown with a selection of clear calls. Calls follow the shape of the dose curve; as a rule, active = well fitted inhibition curve with a large enough effect; inconclusive = small, poorly fitted or top-dose-only effect; inactive = flat fitted curve, though single readings scatter. Where the call is inconclusive, the potency comes from a doubtful curve fit.

Test: qHTS for Inhibitors of human tyrosyl-DNA phosphodiesterase 1 (TDP1): qHTS in cells in absence of CPT; also: nearly all actives have a fitted effect of over 55% in size
Conditions: DT40 Tdp1-/- hTDP1 cells, no CPT, ATP luminescence, 48 h; activity change, negative = growth inhibition: at 46.2 µM (top of the series) unless noted
Procedure, shortened: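 No-CPT arm: Tdp1-/-;hTDP1 DT40 cells (400/well) plus compounds, incubated ≥48 hr at 37 °C. Readout CellTiter-Glo luminescence.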
% is scaled to controls: 0 for no effect and ±100 for the full control effect; potency is read from the fitted curve at half-maximal effect; tags tell the direction and shape of the fitted curve.

| SMILES | Potency | activity change, negative = growth inhibition |
| --- | --- | --- |
| COc1ccc(O)c(C(=O)c2cc(C#N)c(=O)n(Cc3ccccc3)c2)c1 | inconclusive: 14.6 µM [inhibitor, partial curve] | – |
| O=C(COc1cc2oc(=O)c3c(c2cc1Cl)CCC3)NCCCn1ccnc1 | inconclusive: 16.4 µM [inhibitor, single point] | – |
| FC(F)(F)c1ccccc1-c1nc(Nc2ccncc2)c2ccccc2n1 | – | inactive: -62.7% |
| COc1cc(S(=O)(=O)NCCc2ccc3c(c2)OCO3)ccc1-n1cnnn1 | – | inactive: -18.4% |
| Cc1cc(C(=O)NC2CCCN(Cc3ccc(Cl)cc3)C2)c(C)o1 (stereo unspecified) | inconclusive: 25.9 µM [inhibitor, single point] | – |
| Cc1[nH]n(-c2ccccc2)c(=O)c1/C=N/NC(=O)c1ccoc1C | active: 1.84 µM | – |
| O=C(Cn1cnc2c(oc3ccccc32)c1=O)Nc1ccc(OC(F)(F)F)cc1 | – | inactive: -3.72% |
| C=CCn1nc(-c2ccccc2)c(N2CCCCC2)cc1=O | inconclusive: 23.1 µM [inhibitor, single point] | – |
| C=CCn1cc(CN2CCC(C(=O)Nc3ccc(Oc4cccnc4)cc3)CC2)c(C)n1 | – | inactive: -12.9% |
| C=CCn1c(SCC(=O)N2CCOCC2)nc2sc(C)c(C)c2c1=O | – | inactive: -29.4% |
| CCc1ccc(C(=O)NC(=S)Nc2ccc3c(c2)OCCO3)cc1 | inconclusive: 18.4 µM [inhibitor, single point] | – |
| Cc1ccc(CNC(=O)c2ccc3c(c2)N(Cc2ccccc2)C(=O)c2ccccc2S3(=O)=O)cc1 | inconclusive: 11.6 µM [inhibitor, single point] | – |
| CC[C@@]12C(=O)N(c3cccc(F)c3)C(=O)N1[C@H](c1ccc(OC)cc1)[C@@H]1C(=O)N(C(C)(C)C)C(=O)[C@@H]12 | inconclusive: 16.4 µM [inhibitor, single point] | – |
| O=C1/C(=C\c2ccccc2)CN(C(=O)CCN2CCCCC2)C/C1=C/c1ccccc1 | active: 1.46 µM | – |
| COc1ccc(OCC(O)COc2ccc(OC)cc2)cc1 | inconclusive: 18.4 µM [inhibitor, single point] | – |
| Cc1cccc(CCNC(=O)c2cnc3c(C)cccn3c2=O)c1 | inconclusive: 5.8 µM [inhibitor, full curve] | – |
| Cc1ccccc1-n1c(C)cc(/C=N/Nc2ccc([N+](=O)[O-])cn2)c1C | inconclusive: 13 µM [inhibitor, partial curve] | – |
| CC(C)(C)c1ccc(S(=O)(=O)c2cn(CC(=O)Nc3ccccc3)c3ccccc3c2=O)cc1 | inconclusive: 29.1 µM [inhibitor, single point] | – |
| CCN1CCN(C(=O)Nc2ccccc2OC)CC1 | – | inactive: -13.6% |
| CC(C)NC(=O)c1sc2c(c1C(=O)Nc1cccnc1)CCCC2 | inconclusive: 23.1 µM [inhibitor, single point] | – |
| CCOc1ccccc1N(CC(=O)N1CCC(C)CC1)S(=O)(=O)c1ccc(C)cc1 | active: 14.6 µM | – |
| O=S1(=O)CCO[C@H]2Cc3ccccc3[C@H]2N1Cc1ccccc1F | inactive and inconclusive: 16.4 µM [inhibitor, single point] | – |
| Cc1ccc2c(c1)N(C(=O)C1CCN(S(=O)(=O)c3c(C)noc3/C=C/c3ccccc3F)CC1)CCO2 | inconclusive: 16.4 µM [inhibitor, single point] | – |
| O=C(Nc1nnc(S(=O)(=O)N2CCCc3ccccc32)s1)c1cccc(F)c1 | inconclusive: 18.4 µM [inhibitor, single point] | – |

| SMILES | Potency | activity change, negative = growth inhibition |
| --- | --- | --- |
| COc1ccc(N(C(=O)c2cccc(C)c2)S(=O)(=O)c2ccc(C)cc2)cc1 | inconclusive: 29.1 µM [inhibitor, single point] | – |
| O=C1N(c2ccccc2)c2ccccc2C1(O)C(F)(F)F (stereo unspecified) | – | inactive: 0.873% |
| Cc1ccc(S(=O)(=O)N2CC3C(=O)C[C@@H](c4ccccc4Cl)N(S(=O)(=O)c4ccc(C)cc4)C3CC2c2ccccc2)cc1 (stereo partly specified) | inconclusive: 2.06 µM [inhibitor, full curve] | – |
| O=C(COC(=O)C1CC1)Nc1c(Cl)cccc1C(F)(F)F | – | inactive: 4.99% |
| Cc1c(N=Nc2ccc(N(C)C)cc2)c(=O)n(-c2ccccc2)n1C | – | inactive: 16.3% |
| COC(=O)C1CCN(CC(=O)Nc2cc(C)c3c(=O)oc4ccccc4c3n2)CC1 | inconclusive: 29.1 µM [inhibitor, single point] | – |
| Cc1c(C)c2ccc(OCC(=O)N(C)C)c(C)c2oc1=O | – | inactive: -2.99% |
| Cc1cc(C)c(NC(=O)Cn2ccn(-c3cccc(Cl)c3)c(=O)c2=O)c(C)c1 | inconclusive: 29.1 µM [inhibitor, single point] | – |
| CCc1c(C)[nH]c2ccc(C)cc2c1=O | inconclusive: 25.9 µM [inhibitor, single point] | – |
| O=C(CCC1N=C2c3ccccc3N=C(SCc3ccccc3F)N2C1=O)NCCc1ccccc1 (stereo unspecified) | inconclusive: 29.1 µM [inhibitor, single point] | – |
| COc1ccccc1NC(=O)OCC#CCOC(=O)Nc1ccccc1OC | inconclusive: 32.6 µM [inhibitor, single point] | – |
| CC1CCN(C2CCN(C(=O)c3ccccc3F)CC2)CC1 | – | inactive: -13.4% |
| CCOc1ccc(CCNC(=O)CSc2n[nH]c(N)n2)cc1OCC | – | inactive: -0.164% |
| CN1CCN(C(=O)CCCN2C(=O)/C(=C/c3ccccc3)SC2=S)CC1 | active: 16.4 µM | – |
| O=C(NCCCN1CCOCC1)c1cc(-c2cccs2)on1 | inconclusive: 23.1 µM [inhibitor, single point] | – |
| CCOc1ccccc1CNC(=O)c1ccc(NC(=O)N2CCSc3ncccc32)cc1 | active: 14.6 µM | – |
| CC(C)(C)n1nnnc1C(c1ccccc1)N1CCN(C/C=C/c2ccccc2)CC1 (stereo unspecified) | inconclusive: 18.4 µM [inhibitor, single point] | – |
| O=C(Nc1ccc(Cl)c(C(F)(F)F)c1)C1CCCN(S(=O)(=O)c2cnc[nH]2)C1 (stereo unspecified) | inconclusive: 18.4 µM [inhibitor, partial curve] | – |
| COc1ccc(NC(=S)NCCN2CCC(C)CC2)cc1 | – | inactive: 18.1% |
| CCCCCCCN1C2=NCCCN2c2ccccc21 | active: 2.31 µM | – |
| CCc1nnc(NS(=O)(=O)c2ccc(NC(=S)NC(=O)/C=C/c3ccc(OC)cc3)cc2)s1 | – | inactive: -2.37% |
| COc1ccc(-c2nc(C#N)c(N3CC(C)OC(C)C3)o2)cc1OC (stereo unspecified) | – | inactive: -29.7% |
| O=C(Cn1c(=O)oc2ccccc21)Nc1nc(-c2ccc(Br)cc2)cs1 | inconclusive: 18.4 µM [inhibitor, partial curve] | – |
| COc1ccc(S(=O)(=O)N(C)C)cc1NC(=O)Cc1ccc(S(=O)(=O)N2CCOCC2)s1 | inconclusive: 18.4 µM [inhibitor, single point] | – |

| SMILES | Potency | activity change, negative = growth inhibition |
| --- | --- | --- |
| Cc1ccc(-c2nsc(SCC(=O)Nc3ccc4c(c3)OCO4)n2)cc1 | inconclusive: 20.6 µM [inhibitor, single point] | – |
| COc1ccc(CNC(=O)CCNS(=O)(=O)c2cccc3nsnc23)cc1 | inactive | – |
| CCOc1cc(CNC(C)(C)C)ccc1OCC(=O)Nc1cccc(C(F)(F)F)c1 | inconclusive: 20.6 µM [inhibitor, single point] | – |
| COc1ccc(/C=C/C(=O)Nc2nc3n(n2)C(c2ccccc2)C=C(c2ccc(Cl)cc2)N3)cc1 (stereo unspecified) | inconclusive: 18.4 µM [inhibitor, single point] | – |
| O=C(NNC(=O)C1CCCC1)c1ccc(F)cc1 | – | inactive: -16.6% |
| CCOc1ccc(Cn2c(=O)sc3ccccc32)cc1OC | inconclusive: 16.4 µM [inhibitor, single point] | – |
| COc1ccc2c(Sc3ccccc3)c(C(=O)NCCCN3CCCCC3)[nH]c2c1 | active: 18.4 µM | – |
| Cc1ccc(S(=O)(=O)Nc2ccccc2C(C(=O)OC(C)(C)C)C(=O)OC(C)(C)C)cc1 | inconclusive: 20.6 µM [inhibitor, single point] | – |
| COc1cnc(SC)nc1Nc1ccc(C#N)cc1 | inconclusive: 20.6 µM [inhibitor, partial curve] | – |
| CCOC(=O)C1CCCN(C(=O)c2ccc(Cn3c(=S)[nH]c4cc(C(=O)OC)ccc4c3=O)cc2)C1 (stereo unspecified) | active: 25.9 µM | – |
| CC(=O)c1ccc(S(=O)(=O)N2CCNC(=O)C2)cc1 | – | inactive: -0.935% |
| Cc1cccc(C(=O)Nc2ccccc2NC(=O)c2cccc(C)c2)c1 | inconclusive: 29.1 µM [inhibitor, single point] | – |
| O=C1C(=C2CCc3ccccc32)Cc2ccccc21 | inconclusive: 14.6 µM [inhibitor, single point] | – |
| CN(C)c1ccc(N=Cc2ccco2)cc1 | active: 5.17 µM | – |
| COc1ccc(OC)c(C=NNC(=O)c2ccccc2NS(=O)(=O)c2cccs2)c1 | – | inactive: -6.43% |
| O=C(CSc1ccc(-c2ccccc2)nn1)c1ccccc1 | inconclusive: 29.1 µM [inhibitor, single point] | – |
| COc1ccc2oc(=O)c(-c3cn4c(n3)sc3cc(OC)ccc34)cc2c1 | – | inactive: -13.4% |
| Cc1ccccc1C(=O)O/N=C1\CCS(=O)(=O)c2sccc21 | inconclusive: 20.6 µM [inhibitor, single point] | – |
| CC1CCCc2sc3nc(NCc4ccco4)n4ncnc4c3c21 (stereo unspecified) | inconclusive: 18.4 µM [inhibitor, single point] | – |
| COc1ccc(OC)c(CNC(=O)Cn2nc(C)c3nn(-c4ccc(Cl)cc4)c(C)c3c2=O)c1 | active: 18.4 µM | – |
| O=C(O)CC/C(=N\NC(=O)c1ccc(F)cc1)c1ccc(Br)cc1 | inconclusive: 0.58 µM [inhibitor, single point] | – |
| COc1ccc(/C=N/NC(=O)c2ccco2)cc1OCc1ccccc1 | inconclusive: 18.4 µM [inhibitor, single point] | – |
| C[C@@H](CN1CC(=O)NC(=O)C1)N1CC(=O)NC(=O)C1 | inconclusive: 23.7 µM [inhibitor, single point] | – |
